{"source": "paper PMC12136788", "binders": {"B1": {"name": "chr10:99879964:99880065:-|CDS|ENSG00000107554|unk|FALSE|bound_elsewhere (ssRNA)", "RNA": "GGGAGUUCUACAGUCCGACGAUCCAGAUGCCCUUCAGACCCAGACUCCACCUCCCAGCCAAGGUCAGGGGACUCUGCAGAUGUAGCUAGAGAUGUAAAGCAACCCACUGCCACGCCGAGGAGCUACCGGAACUUCAGGCAUCCCAACAGAGGAUUGAGCAUCA"}, "B2": {"name": "chr1:228494639:228494729:+|3pUTR|ENSG00000168159|msi1_unk|total|mutant (ssRNA)", "RNA": "GGGAGUUCUACAGUCCGACGAUCGCCAUCGUGUCUCAUCUUGCUGUUAUCUCCCGCUCUUUCCCUCCUCCCAUUUCCUUCCGCCGUUGAAUUUUGCAAAGCUUGCCGCAGCCGCUCAGUUGCCUGCAGCAUCCUUGUGUGCCGCAACAGAGGAUUGAGCAUCA"}, "B3": {"name": "chr15:49644301:49644402:+|3pUTR|ENSG00000104047|msi1|FALSE|unique (ssRNA)", "RNA": "GGGAGUUCUACAGUCCGACGAUCAAUAAUUGAAGCCUACCUGCUAGUGGCCAUCUCUGCUGCCAGGUGAAAAGAGCCUGACUUAGAAUGAAGUCAGCGAAGGAAAGCAGAGUGGAGAGAAAAAGAGAGACUGAGUCCUGAUGACAACAGAGGAUUGAGCAUCA"}, "B4": {"name": "chr11:35726083:35726184:+|CDS|ENSG00000166326|msi1|FALSE|bound_elsewhere (ssRNA)", "RNA": "GGGAGUUCUACAGUCCGACGAUCGAGGCAAUGGCCACAGCUCAUGUGACUGAGAUACUGGCAGACAUCCAAUCCCACAUGGAUAGGUUGAUGACUCAGAUGGCCCAAGCCAAGGAACAACUUGAUACCUCUAAUGAAUCAGCUCAACAGAGGAUUGAGCAUCA"}, "B5": {"name": "chr2:206003504:206003605:-|3pUTR|ENSG00000114933|msi1|FALSE|unique (ssRNA)", "RNA": "GGGAGUUCUACAGUCCGACGAUCGGUCGUGUGAGUAGCACAACCUUUUUCUGCUAAAAGUUAGCCCAAGAAGAAACAGAACAUAGAAAGCUUGGAUUCCCGUCAGUGAGGUAGGGAUGUCCUAAAAAGCUUGCCUGGGAUGACCAACAGAGGAUUGAGCAUCA"}, "B6": {"name": "ENSG00000196510:stop:overlap|stop_codon|ENSG00000196510|stop_codon|NA|stop_codon (ssRNA)", "RNA": "GGGAGUUCUACAGUCCGACGAUCUCCUUGUAGCUGUCAAUGAGUAUCAGGAGGCAAUGGACCAGUAUAGUAUAGCACUAAGGUAGGCACUAGCCUCCCUUGGGGGAAGGCCACUGAGGAGGGUAGAGGAGGCAGUGAGCUGUGCAACAGAGGAUUGAGCAUCA"}, "B7": {"name": "ENSG00000124766:be:win_801|CDS|ENSG00000124766|bound_else_gene|NA|bound_elsewhere_windowed (ssRNA)", "RNA": "GGGAGUUCUACAGUCCGACGAUCCUCGGCCUCCGCCUCCUCGGCAGCCUCGGCCUCCGCAGCGCUCGCGGCCCCGGGCAAGCACCUGGCGGAGAAGAAGGUGAAGCGCGUCUACCUGUUCGGCGGCCUGGGCACGUCGUCGUCCAACAGAGGAUUGAGCAUCA"}, "B8": {"name": "chr12:79451877:79451978:+|3pUTR|ENSG00000067715|msi1|FALSE|unique (ssRNA)", "RNA": "GGGAGUUCUACAGUCCGACGAUCCCUUCAUUUUUGAUGAGGUGAUUUAAAUUUUGUUUCACUUUGUGUAGUGAAUUCCACAGUAGUUUUCUGAUUGUUGUUAAAAAUGACUUAACAUAUUACACAGAUAUUCAAUAAAAAUGUCAACAGAGGAUUGAGCAUCA"}, "B9": {"name": "chr1:109011400:109011505:-|CDS|ENSG00000085433|unk|FALSE|unique (ssRNA)", "RNA": "GGGAGUUCUACAGUCCGACGAUCGUCAUGGUUGCAGAAUUCAUCCCUGCUGAUAGGAAGCUAAGUGAAGCUGGUUUUAAGGCUAGUAACAAUCGUUUAUUUCAGCUUGUAAUGAAAGGCCUGCUUUAUGAAUGCUGUGUAGAACAACAGAGGAUUGAGCAUCA"}, "B10": {"name": "chr12:6238009:6238110:+|3pUTR|ENSG00000010278|msi1_unk|FALSE|overlapping (ssRNA)", "RNA": "GGGAGUUCUACAGUCCGACGAUCAUAAAAGCUGAAGUUACUUUAUGUUUGUCUUUUAAUGCUUCAUUCAAUAUUGACAUUUGUAGUUGAGCGGGGGGUUUGGUUUGCUUUGGUUUAUAUUUUUUCAGUUGUUUGUUUUUGCUUCAACAGAGGAUUGAGCAUCA"}, "B11": {"name": "chr1:54031757:54031935:-|3pUTR|ENSG00000116209|msi1|total|mutant (ssRNA)", "RNA": "GGGAGUUCUACAGUCCGACGAUCUCCGCUAUGAGCUGAUCAUUGCUCCUUCUCACCUCCUGCCAUGAUACUGUCAGUUACCUCCGUUAACAAGCUGAAUAUUCCGCCGAAAUGAUGCUUCUGCUCAGGAAUGGCCCACAAAUCCAACAGAGGAUUGAGCAUCA"}, "B12": {"name": "chr15:50499333:50499363:+|3pUTR|ENSG00000138592|msi1_unk|FALSE|overlapping (ssRNA)", "RNA": "GGGAGUUCUACAGUCCGACGAUCCAGGUACCAUUUAUUUCAAAACAACUUUUUUAGUCUGCUCCAAAGUUAAAAUAAUUAACUAGCUAAGCAUUAUUAUUCGACUGGUCUAAAAACUAUUGUUAUCUUUUUUUUUUCCUUUUCCAACAGAGGAUUGAGCAUCA"}, "B13": {"name": "ENSG00000070961:be:win_4151|3pUTR|ENSG00000070961|bound_else_gene|NA|bound_elsewhere_windowed (ssRNA)", "RNA": "GGGAGUUCUACAGUCCGACGAUCGAUGGGAAGCUUCCUUAUAACUGAUGCAGAGAAAAAUUAGUCCUUCAAAUACUGCUGUAUUUUCAGGAAAAAAAAAAAAAGGGGUGUUUCUAUUGAAACUGUACUAAAUUUUUGCCUACACAACAGAGGAUUGAGCAUCA"}, "B14": {"name": "chr3:183812448:183812549:+|3pUTR|ENSG00000163872|msi1|FALSE|unique (ssRNA)", "RNA": "GGGAGUUCUACAGUCCGACGAUCUAUUGCAGGUAUCACAGCCUAAAGAAAUUAUCUUUUUGCAAAAGAAAUAUUAAAUGAUUUAGCAGUCUCCACGUGUGUUAAUGUUUCAAACGUGUAUCAUAAUGUGUAUAAUUGUGUAACCAACAGAGGAUUGAGCAUCA"}}, "note": "The list shows a part of the results."}
{"target": "MSI1 full-length (mouse, UniProt Q61474 1-362)", "sequence (Q61474 whole entry)": "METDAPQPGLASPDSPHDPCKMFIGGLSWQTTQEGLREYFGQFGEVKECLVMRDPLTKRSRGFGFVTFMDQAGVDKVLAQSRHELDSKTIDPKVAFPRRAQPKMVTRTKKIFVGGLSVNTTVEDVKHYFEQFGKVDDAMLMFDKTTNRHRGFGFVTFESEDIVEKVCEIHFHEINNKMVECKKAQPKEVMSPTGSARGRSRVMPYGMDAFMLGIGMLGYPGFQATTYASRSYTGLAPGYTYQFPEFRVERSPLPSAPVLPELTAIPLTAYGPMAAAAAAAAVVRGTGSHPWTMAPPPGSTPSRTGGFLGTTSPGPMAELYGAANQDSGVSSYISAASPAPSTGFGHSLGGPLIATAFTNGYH", "assay": "nsRBNS (natural sequence RNA bind-n-seq); RBNS binding buffer (assumed for nsRBNS): 25 mM Tris pH 7.5, 150 mM KCl, 3 mM MgCl2, 0.01% Triton X-100, 500 ug/ml BSA, 20 U/ml SUPERase-In, 4 C; UNK is unkempt and MSI1 is Musashi-1; names of the RNAs are library labels; protein concentration not given here; high values mean tight binding", "units": {"binding signal": "enrichment R"}}
{"binder": "B1", "binding signal": 1.22}
{"binder": "B2", "binding signal": 0.702}
{"binder": "B3", "binding signal": 0.561}
{"binder": "B4", "binding signal": 0.329}
{"binder": "B5", "binding signal": 0.693}
{"binder": "B6", "binding signal": 0.604}
{"binder": "B7", "binding signal": 0.408}
{"binder": "B8", "binding signal": 0.962}
{"binder": "B9", "binding signal": 0.983}
{"binder": "B10", "binding signal": 2.37}
{"binder": "B11", "binding signal": 0.454}
{"binder": "B12", "binding signal": 9.19}
{"binder": "B13", "binding signal": 0.843}
{"binder": "B14", "binding signal": 0.77}
